Experimental data from PubChem BioAssay AID360 (National Center for Advancing Translational Sciences (NCATS), 2006).
Screen size: about 48,000 compounds; about 550 (1.1%) were called active. Roughly 4% stayed inconclusive and do not appear here. No stated cut-off is given here; in the data, active means potency below about 15 µM; inconclusive means mostly about 16 µM to 33 µM; inactive means weaker than that. The list shows a part of the results.

molecular target: Lysosomal acid glucosylceramidase (Homo sapiens) (UniProt P04062); assay: Glucocerebrosidase; conditions: purified enzyme, resorufin glucoside fluorescence (screen aimed at inhibitors), 20 min;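 further: the screen sought inhibitors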
Chain of UniProt P04062 (P04062 whole entry, looked up): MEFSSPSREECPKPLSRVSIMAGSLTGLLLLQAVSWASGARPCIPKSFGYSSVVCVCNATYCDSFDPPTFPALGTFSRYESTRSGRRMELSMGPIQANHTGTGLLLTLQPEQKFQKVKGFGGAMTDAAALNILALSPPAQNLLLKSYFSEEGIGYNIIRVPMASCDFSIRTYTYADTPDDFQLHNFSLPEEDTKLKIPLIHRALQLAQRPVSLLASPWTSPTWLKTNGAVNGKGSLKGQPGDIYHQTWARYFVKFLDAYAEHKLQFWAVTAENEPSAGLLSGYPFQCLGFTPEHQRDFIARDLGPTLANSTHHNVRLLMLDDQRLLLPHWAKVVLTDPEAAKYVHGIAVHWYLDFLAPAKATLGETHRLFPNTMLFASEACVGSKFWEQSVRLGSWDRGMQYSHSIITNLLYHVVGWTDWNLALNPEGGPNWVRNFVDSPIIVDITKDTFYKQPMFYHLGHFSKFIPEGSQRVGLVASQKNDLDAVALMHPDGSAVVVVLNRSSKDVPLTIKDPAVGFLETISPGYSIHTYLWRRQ
From the text: NCGC Assay Overview: Beta-glucocerebrosidase catalyzes the hydrolysis of beta-glucocerebroside to glucose and ceramide. The inherited deficiency of beta-glucocerebrosidase results in Gaucher disease, which is characterized by a wide variety of symptoms including hepatosplenomegaly, anemia, thrombocytopenia, bony lesions and bone marrow infiltration with characteristic storage cells, known as Gaucher cells. There are also forms of the disorder affecting the central nervous system. Patients with the same genotypes can manifest with diverse clinical presentations and it is believed that improper folding and trafficking of beta-glucocerbrosidase may contribute to the phenotypes observed. Low molecular weight molecules, acting as chaperones, may potentially restore trafficking of misfolded beta-glucocerebrosidase from the endoplasmic reticulum to the lysosomes, thereby enhancing functional lysosomal beta-glucocerebrosidase activity. Using normal beta-glucocerebrosidase, an assay was developed to screen for small molecule inhibitors that could potentially act as molecular chaperones on the mutant forms [developed with NIH investigator Dr. Ellen Sidransky's laboratory]. Two pro-fluorescent substrates were chosen for two screens against a small molecule library. One beta-glucocerebrosidase assay used Resorufin beta-D-Glucopyranoside (Marker Gene Technology Inc.), generating a red fluorescent product. The second assay used Fluorescein di-beta-D-Glucopyranoside, generating a blue fluorescent product. […] The IC50 values of Conduritol B Epoxide, a known glucocerebrosidase inhibitor, were determined to be 87.5 uM and 117 uM, respectively. The use of two difference pro-fluorescent substrates in the screens helped to eliminate false positives. All compounds were screened in a titration series resulting in AC50s (e.g., IC50s or EC50s).
NCGC Assay Protocol Summary: Both enzyme and substrate were diluted in buffer composed of 50mM citric acid/KH2PO4, 10mM sodium taurocholate and 0.01% tween-20 at pH 5.9. The final concentration of the enzyme was 0.2 nM in both assays. The compound library was titrated in 7 to 15 concentrations for the primary screens with a final concentration ranging from 0.6 nM to 50 uM. This particular assay protocol is for the "red" substrate, and it was performed in 1536-well plate format as follows: Red fluorescence substrate assay: 2 uL enzyme 23 nL compound 1 uL substrate (final concentration of 30 uM) Incubate at room temperature (RT) for 20 minutes Read the plate in Viewlux plate reader (Ex=548(7) and Em=600(10)).
Potency means the concentration at half of the fitted maximal effect.

Potency, inactive:
CCN(C(=O)Cc1cccs1)c1nnc(-c2cc(OC)c(OC)c(OC)c2)s1 > 76.9 µM
CCS(=O)(=O)Nc1ccc(C(=O)OC)cc1 > 76.9 µM
CCCOc1ccc(NC(=O)C2CC(=O)N3CCCN=C3S2)cc1 (stereo not given) > 76.9 µM
O=C(CSc1nc2cc3c(cc2c(=O)n1CCC1=CCCCC1)OCO3)NCc1ccco1 > 76.9 µM
CCNC(=O)N1C(CC(=O)OCC)C(=O)NC2CCCCC21 (stereo not given) > 76.9 µM
CCC1Oc2ccc(C)cc2N(CC(=O)N(Cc2cccnc2)Cc2ccc(C)o2)C1=O (stereo not given)
CCN(CC)c1ccc(NC(=O)CN2CCN(c3nc(C)cc(C)n3)CC2)cc1 > 76.9 µM
CN(C)S(=O)(=O)c1ccc(NC(=O)c2ccccn2)cc1 > 76.9 µM
O=C(CN(CCc1ccccc1)C(=O)CNS(=O)(=O)c1ccc(F)cc1)NCc1ccco1 > 76.9 µM
COc1ccc(C(=O)N2CCC(C(=O)Nc3ccccc3OC)CC2)cc1 > 76.9 µM
COc1ccc(-c2nc(N)n(C(C)=O)n2)cc1 > 76.9 µM
Cc1ccc(CNC(=O)CCCn2c(=O)c3ccccc3n(CC(=O)NCc3ccco3)c2=O)cc1 > 76.9 µM
Clc1ccc(Cc2noc(Cc3ccccc3)n2)cc1Cl > 76.9 µM
CCOC(=O)CNC(=O)CSc1nnc(COc2ccc(Cl)cc2)n1CC > 76.9 µM
COc1ccc(-c2nnc3sc(C4CCCCC4)nn23)cc1OC > 76.9 µM
COc1ccc(C2/C(=C(/O)c3ccccc3)C(=O)C(=O)N2CC(C)O)c(OC)c1 (stereo not given) > 76.9 µM
O=C(O)[C@H](Cc1ccccc1)N1C(=O)c2ccncc2C1=O > 76.9 µM
CC(=O)c1cc2c(cc1NC(=O)CSc1nc3ccccc3o1)OCO2 > 76.9 µM
COc1ccccc1N(CC(O)CN(c1ccccc1)S(C)(=O)=O)S(=O)(=O)c1ccccc1 (stereo not given) > 76.9 µM
CCOC(=O)C1=C(N)n2c(s/c(=C\c3ccco3)c2=O)=C(C(=O)OCC)C1c1ccco1 (stereo not given) > 76.9 µM
CC(=O)Nc1nc(C(=O)Nc2c(C)n[nH]c2C)cs1 > 76.9 µM
Cc1ccc(CNC(=O)Cn2ccc3ccccc3c2=O)o1 > 76.9 µM
O=C(O)CSC1CC(=O)N(c2ccc(Cl)cc2)C1=O (stereo not given) > 76.9 µM
Cc1nc2ccccn2c1C(=O)NCc1cccnc1 > 76.9 µM
CCOc1ccc(OCC)c(NC(=O)CN2CCN(c3ccc(C)cc3C)CC2)c1 > 76.9 µM
Cn1c2ccccc2c2c(C(=O)NCC3CCCO3)cn(C3CCCC3)c(=O)c21 (stereo not given) > 76.9 µM
CC(C)CCNC(=O)CN(C(=O)Cn1nnc(-c2ccc(F)cc2)n1)C1CCCC1 > 76.9 µM
O=C(NCCCN1CCCC1=O)c1ccc2c(c1)OCO2 > 76.9 µM
CCc1ccc(NC(=O)N(CCCOC(C)C)C2CCN(C(C)=O)CC2)cc1 > 76.9 µM
Cc1ccccc1CS(=O)(=O)Cc1ccc(C(=O)NCc2cccnc2)o1 > 76.9 µM
O=c1cc[nH]c2cccc(Cc3ccccc3)c12 > 76.9 µM
CCOc1ccc(NC(=O)CN2CCN(CC(=O)c3ccc(OC)c(OC)c3)CC2)cc1 > 76.9 µM
CCCn1nc(C(=O)Nc2cc(C(=O)OC)ccc2C)c2ccccc2c1=O > 76.9 µM
Cc1ccc(S(=O)(=O)N2C(=O)CCC2C(=O)Nc2ccc3c(c2)OCCO3)cc1 (stereo not given) > 76.9 µM
Cc1ccc(NC(=O)Cc2nc(CSc3nnc(-c4ccc5c(c4)OCO5)o3)cs2)cc1 > 76.9 µM
COc1ccc(-n2c(O)c(C=NC3CC3)c(=O)[nH]c2=O)cc1 > 76.9 µM
Cc1cc(=O)oc(C)c1C(=O)O > 76.9 µM
CCCCn1c(=N)n(CC(=O)C(C)(C)C)c2ccccc21 > 76.9 µM
O=c1c(O)c(-c2ccc3c(c2)OCO3)oc2ccccc12 > 76.9 µM
C=CCn1c(SCn2nnc3ccccc3c2=O)nnc1-c1ccc(Br)cc1 > 76.9 µM
CNc1nc2c(c(=O)[nH]c(=O)n2C)n1CCOC > 76.9 µM
O=C(CSc1nc(Nc2ccccc2)nc(N2CCOCC2)n1)N1CCc2ccccc21 > 76.9 µM
CCN(CC)S(=O)(=O)c1cccc(C(=O)Nc2ccccc2C(=O)N2CCOCC2)c1 > 76.9 µM
Cn1c(=O)c2c(nc(NC(Cc3ccccc3)C(=O)O)n2Cc2ccccc2)n(C)c1=O (stereo not given) > 76.9 µM
COc1cc(C(=O)N2CCN(C(=O)C3CC3)CC2)cc(OC)c1OC > 76.9 µM
CC1CN=C(c2cccn2Cc2ccc(F)cc2Cl)O1 (stereo not given) > 76.9 µM
COc1ccc(NC2CC(=O)NC2=O)cc1 (stereo not given) > 76.9 µM
COc1cc(NC(=O)c2csc3c2CCCC3)ncn1 > 76.9 µM
Cc1cc(=O)[nH]c(SCc2nc3ccccc3s2)n1 > 76.9 µM
COc1ccc2nc(NS(=O)(=O)c3ccc(NC(C)=O)cc3)sc2c1 > 76.9 µM
O=C1CN(C(=O)c2ccccn2)c2ccccc2N1 > 76.9 µM
CCOc1ccccc1Nc1nnc(SCC(=O)Nc2cc(C)on2)s1
O=C(NCc1ccccc1F)C1CCCN1C(=O)NCc1ccccc1 (stereo not given) > 76.9 µM
O=C(OCc1nnc(-c2ccccc2)o1)c1ccc2c(c1)OCO2 > 76.9 µM
CCOc1ccc(-c2nnc3sc(COc4ccc(Cl)cc4)nn23)cc1 > 76.9 µM
CCOC(=O)CN(C(=O)CSc1nnc(C)n1-c1ccccc1)c1ccccc1 > 76.9 µM
O=C(CSc1nnc(-c2ccco2)o1)c1ccccc1 > 76.9 µM
Cc1ccc(C(=O)c2cc(C)sc2NC(=O)CN2CCN(C(=O)c3ccco3)CC2)cc1 > 76.9 µM
CC1CCCN(S(=O)(=O)c2ccc3c(c2)CCN3C(=O)C2CCC2)C1 (stereo not given) > 76.9 µM
O=C(OCC(=O)N1CCCc2ccccc21)c1ccc(Br)o1 > 76.9 µM
CCCS(=O)(=O)N1CCCC(C(=O)NCCCOC(C)C)C1 (stereo not given) > 76.9 µM
CC(C)Sc1nc2c(c(=O)n(C)c(=O)n2C)n1C > 76.9 µM
Cc1[nH]nc2c1C1(CCN(C(=O)c3ccccc3)CC1)C(C#N)=C(N)O2 > 76.9 µM
N#CCC(=O)Nc1ccccc1C(=O)O > 76.9 µM
O=S(=O)(c1ccc(OCC(O)CN2CCc3ccccc3C2)cc1)N1CCOCC1 (stereo not given) > 76.9 µM
C=CCOC(=O)C1=C(C)Nc2nnnn2C1c1cccc(OC)c1OC (stereo not given) > 76.9 µM
CC1(C)Cc2nc(-c3ccccc3)n3cnnc3c2CO1 > 76.9 µM
COC(=O)CCC(=O)Nc1cccc(Br)c1 > 76.9 µM
O=C(CSc1nc(-c2ccccc2)cc(=O)[nH]1)Nc1ccccn1 > 76.9 µM
CCc1ccccc1N(CC(=O)NCc1ccco1)C(=O)c1snc(C(N)=O)c1N > 76.9 µM
COc1ccc(NC(=O)c2ccco2)c(OC)c1 > 76.9 µM
O=C(CN1C(=O)COc2ccccc21)NCCCN1CCN(Cc2ccccc2)CC1 > 76.9 µM
COCC(C)n1c(C)cc(C(=O)COC(=O)c2ccc(N3CCCC3=O)cc2)c1C (stereo not given) > 76.9 µM
CCN(CCCn1c(SCC#N)nc2ccccc2c1=O)c1ccccc1 > 76.9 µM
CCCCNC(=O)C1c2cc(OC)c(OC)cc2C(=O)N(C)C1c1ccc(OC)cc1 (stereo not given) > 76.9 µM
Cc1ccc(C2Nc3ccccc3C(=O)N2Cc2ccco2)cc1 (stereo not given) > 76.9 µM
CCOC(=O)N1CCN(c2nc(C(F)(F)F)nc3c(C)cc(C)cc23)CC1
Cc1ccc(OCC(=O)Nc2cccc(C)n2)c(C)c1 > 76.9 µM
CC1(C)OC(=O)C(=CNCC(=O)NCC(=O)O)C(=O)O1 > 76.9 µM
CC1CCCCN1C(=O)CN1C(=O)CN(C)C(=O)c2ccccc21 (stereo not given) > 76.9 µM
Cn1c(=O)c2c(nc(CN3CCN(C(=O)c4ccco4)CC3)n2Cc2cccc(Cl)c2)n(C)c1=O > 76.9 µM
Cc1ccc(OCCN2C(=O)CSC2=O)cc1 > 76.9 µM
O=c1[nH]c(CSc2nnc(-c3ccco3)n2-c2ccccc2)nc2sc3c(c12)CCC3 > 76.9 µM
CCn1c(=O)n(CC)c2cc(S(=O)(=O)Nc3ccccc3C)c(C)cc21 > 76.9 µM
COCCCNC(=O)CS(=O)(=O)Cc1nc(-c2cccc(OC)c2)oc1C > 76.9 µM
COc1ccc2cc(C(c3nnnn3CCc3ccccc3)N3CCCC(C)C3)c(=O)[nH]c2c1 (stereo not given) > 76.9 µM
Cc1cc(C(=O)CSc2nnc(-c3cccs3)n2Cc2ccccc2)c(C)n1C > 76.9 µM
COCCCn1c(SCC(=O)N2CCCC(C)C2)nnc1-c1ccco1 (stereo not given) > 76.9 µM
O=C(O)CCc1nc(-c2ccccc2Cl)no1 > 76.9 µM
CN(C)c1ccc(CNn2cnnc2SCc2ccccc2F)cc1 > 76.9 µM
